Measured values from patent US20220403048A1, “BINDING MOLECULES TO ARGINASE II [ARG2]” (Cancer Research Technology Limited, priority 2019, published 2022).

Molecular target: T1, human ARG2 (Homo sapiens, UniProt P78540, E275H/R327K)
T1 construct: His10 (after a GGG linker) (C); made in house; host or cells: E. coli BL21 (DE3)
T1 sequence (P78540 23-354 E275H/R327K): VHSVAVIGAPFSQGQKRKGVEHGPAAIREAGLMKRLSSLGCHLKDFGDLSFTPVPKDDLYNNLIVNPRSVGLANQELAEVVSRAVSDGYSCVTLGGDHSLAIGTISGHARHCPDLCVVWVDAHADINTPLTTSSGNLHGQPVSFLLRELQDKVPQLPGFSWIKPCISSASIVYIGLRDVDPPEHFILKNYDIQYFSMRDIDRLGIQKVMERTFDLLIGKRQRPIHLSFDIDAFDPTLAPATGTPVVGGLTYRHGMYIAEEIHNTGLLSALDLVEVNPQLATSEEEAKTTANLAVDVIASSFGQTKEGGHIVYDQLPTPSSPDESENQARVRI
Assay: Bio-Layer Interferometry (OctetRED) binding kinetics, human ARG2
Details: Fab analyte, biotinylated human ARG2 on streptavidin tip, 1:1 binding fit
From the text: The OctetRED (Pall ForteBio) instrument was used to assess the kinetic parameters of the interactions between C0020187 and recombinantly produced human ARG2, cynomolgus ARG2 and human ARG1. The Octet biosensor uses an optical analytical technique that analyses the interference pattern of white light reflected from two surfaces: a layer of immobilised protein on the sensor tip, and an internal reference layer. Any changes in binding at the biosensor tip result in a shift in interference pattern, which can be measured in real time. Molecules associating with or dissociating from ligands at the biosensor tip shift the interference pattern and generate a response on the Octet system which is recorded by the acquisition software.
Typically, a defined concentration of the analyte species is brought into contact with the coupled ligand and any binding is detected as an increased in signal (association phase). […]
An Octet Kinetics Buffer (PBS containing 0.01% BSA and 0.002% Tween20) is typically used as the diluent buffer for the analyte samples and as the flow buffer during the dissociation phase. The experimental data is recorded over time as shift in interference pattern (nm) over time, which is directly proportional to the optical thickness at the biosensor tip, which in turn is an approximate measure of the mass of analyte bound. […]

ka: 69200 M⁻¹ s⁻¹ | kd: 0.000577 s⁻¹
B1: C0020187: anti-ARG2 antibody, parent lead isolation clone, VH SEQ ID NO: 12, VL SEQ ID NO: 17 (antibody, listed as Homo sapiens, V domains shown)
VH: [about 100 residues not given here]LRADLGLYMDLWGRGTLVTVSS
VL: QSVLTQPPSVSAAPGQKVTISCSGSSSNIGNHYVSWYQQLPGTAPKLLIYDNSERPSGIPDRFSGSKSGTSATLGITGLQTGDEADYYCGTWDSSLSALVFGGGTKLTVL
modifications: C0020187
